No constants are given. Whether binding was seen depends on the method and setting. In cells and extracts the contact can be indirect. Some binding calls cover weakened binding; strength is not graded here. Tags and fused reporters may be left off the sequences shown. Values belong to the molecule of their own block, whether it stands above or below them.
Experiments:
[1] = biological target: T1, GST-Bag-1(202-269) peptide (UniProt Q99933); assay: pull-down; GST-fused Bag-1 proteins or Bag-1 peptides (5-25 µg) on glutathione-agarose beads, incubated with 400 µg of 22Rv.1 cell lysate; Western blot with anti-GRP78/BiP and anti-GST; only the target purified
T1 sequence: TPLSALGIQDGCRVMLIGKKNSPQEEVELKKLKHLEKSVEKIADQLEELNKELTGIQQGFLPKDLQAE

Protein sequences, listed by entry. Tags and fused reporters are not part of them. Lines headed by an entry give the natural chain unless they say otherwise; changes in a name come on top. Chains listed by the source or under a name are the forms on record and can include a tag or linker. Residues count along the entry.
UniProt P11021: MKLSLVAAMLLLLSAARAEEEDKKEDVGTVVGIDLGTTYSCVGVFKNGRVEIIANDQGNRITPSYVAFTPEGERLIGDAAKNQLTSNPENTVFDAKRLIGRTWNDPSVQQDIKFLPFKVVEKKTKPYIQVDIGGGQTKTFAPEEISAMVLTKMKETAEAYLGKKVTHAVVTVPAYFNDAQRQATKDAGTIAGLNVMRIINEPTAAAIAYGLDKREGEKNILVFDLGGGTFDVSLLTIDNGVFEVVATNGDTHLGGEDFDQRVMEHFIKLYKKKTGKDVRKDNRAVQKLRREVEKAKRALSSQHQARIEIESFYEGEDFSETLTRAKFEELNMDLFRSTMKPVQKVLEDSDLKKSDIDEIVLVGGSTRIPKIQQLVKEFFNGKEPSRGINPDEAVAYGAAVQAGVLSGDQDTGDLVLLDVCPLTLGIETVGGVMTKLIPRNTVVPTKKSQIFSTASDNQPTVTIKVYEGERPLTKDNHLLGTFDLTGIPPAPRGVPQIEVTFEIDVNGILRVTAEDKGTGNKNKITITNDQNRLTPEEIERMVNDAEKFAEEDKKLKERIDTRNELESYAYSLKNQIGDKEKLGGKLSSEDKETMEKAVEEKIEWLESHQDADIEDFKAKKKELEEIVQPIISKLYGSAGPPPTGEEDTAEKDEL
GST-fused GRP78-SBD (GRP78 409-651): residues 409-651 of P11021

[2] = biological target: T2, GST-C-term peptide (Bag-1L 241-269) (UniProt Q99933); assay: as above
T2 sequence: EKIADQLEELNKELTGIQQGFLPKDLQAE

[3] = biological target: T3, GST-N-term peptide (Bag-1L 202-241) (UniProt Q99933); assay: as above
T3 sequence: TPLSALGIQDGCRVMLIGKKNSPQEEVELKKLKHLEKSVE

[4] = biological target: T4, GST-fused Bag-1L (UniProt Q99933); assay: as above
T4 sequence: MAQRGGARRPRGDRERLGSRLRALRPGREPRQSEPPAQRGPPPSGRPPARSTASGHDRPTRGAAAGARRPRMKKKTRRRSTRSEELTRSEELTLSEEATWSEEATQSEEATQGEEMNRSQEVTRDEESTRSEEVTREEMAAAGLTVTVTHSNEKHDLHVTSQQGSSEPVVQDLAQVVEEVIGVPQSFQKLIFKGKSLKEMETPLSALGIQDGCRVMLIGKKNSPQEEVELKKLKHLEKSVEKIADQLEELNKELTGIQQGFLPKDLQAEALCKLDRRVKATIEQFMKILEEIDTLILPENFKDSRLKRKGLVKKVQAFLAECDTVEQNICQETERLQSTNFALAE

[5] = biological target: T5, GST-ΔUbi peptide (Bag-1L 220-269) (UniProt Q99933); assay: as above
T5 sequence: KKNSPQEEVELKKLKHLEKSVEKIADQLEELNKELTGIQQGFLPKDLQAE

[6] = biological target: T6, HA-tagged Bag-1 peptide (Bag-1L 202-269) (UniProt Q99933); assay: co-IP; HEK 293 cells transfected with HA-tagged Bag-1 peptide, treated with DSP cross-linker; legend: immunoprecipitated with anti-HA or IgG, blotted with anti-GRP78/BiP (methods: the reverse)
T6 sequence: T1 sequence

[7] = biological target: GST-fused GRP78-SBD (GRP78 409-651) (UniProt P11021); assay: pull-down; 10 µg GST-fused GRP78 full length, ATPase domain or SBD, incubated with lysate (100-500 µg) of HEK-293 cells transfected with HA-tagged Bag-1 constructs; Western blot with HA antibody; only the target purified

- binding [1]: binds
- binding [2]: no binding
- binding [3]: binds
- binding [4]: binds
- binding [5]: no binding
Molecule: GRP78/BiP (glucose regulated protein GRP78), endogenous in 22Rv.1 prostate cancer cells (from UniProt P11021 19-654)

- binding [6]: binds
Molecule: GRP78/BiP, endogenous in HEK-293 cells (from UniProt P11021 19-654)

- binding [7]: binds
Molecule: TPLSALGIQDGCRVMLIGKKNSPQEEVELKKLKHLEKSVE (peptide, UniProt Q99933-1 202-241) [HA-tagged N-ter-Bag-1 peptide (Bag-1L 202-241)]

- binding [7]: binds
B1: HA-tagged Bag-1 peptide (Bag-1L 202-269) (peptide, UniProt Q99933-1 202-269)
chain: T1 sequence
